# Source: the supplement of paper PMC11876631
# ± gives the standard deviation of the averaged measurements. Laboratory Escherichia coli strains with one amino-acid change in an essential protein, pooled on minimal glucose agar with carbenicillin or gentamicin at twice the control MIC (plus kanamycin and chloramphenicol for the plasmids), 48 h. Fold change of barcode share against drug-free plates; higher = less susceptible. Active = above 20 in both replicates (the paper's putatively resistant). '<' = one read or none on drug, '>' = one read or none on a drug-free plate. Shares are relative, so most strains fall below 1 when a few take over. Listed are strains with at least 15 reads on both drug-free plates, and hits; most hits rest on fewer reference reads. Replicate rank correlation about 0.5. Edits are read from barcodes.
# Target: Escherichia coli (laboratory strain)
# Experiment: barcode share on antibiotic plates over drug-free plates; higher = less susceptible
# Protocol: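 A pool of E. coli strains, each edited to carry one amino-acid change in an essential protein, was grown for 48 h on minimal glucose agar with or without antibiotic; strain barcodes were sequenced; mean of two replicates.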
# [1] = antibiotic: carbenicillin, 2× MIC (3.1 µg/mL)
# [2] = antibiotic: gentamicin, 2× MIC (MIC 0.45 µg/mL)
Protein,fold change of barcode share [1],fold change of barcode share [2]
gltX L28Q (protein) MKIKTRFAPSPTGYLHVGGARTALYSWQFARNHGGEFVLRIEDTDLERSTPEAIEAIMDGMNWLSLEWDEGPYYQTKRFDRYNAVIDQMLEEGTAYKCYCSKERLEALREEQMAKGEKPRYDGRCRHSHEHHADDEPCVVRFANPQEGSVVFDDQIRGPIEFSNQELDDLIIRRTDGSPTYNFCVVVDDWDMEITHVIRGEDHINNTPRQINILKALKAPVPVYAHVSMINGDDGKKLSKRHGAVSVMQYRDDGYLPEALLNYLVRLGWSHGDQEIFTREEMIKYFTLNAVSKSASAFNTDKLLWLNHHYINALPPEYVATHLQWHIEQENIDTRNGPQLADLVKLLGERCKTLKEMAQSCRYFYEDFAEFDADAAKKHLRPVARQPLEVVRDKLAAITDWTAENVHHAIQATADELEVGMGKVGMPLRVAVTGAGQSPALDVTVHAIGKTRSIERINKALDFIAERENQQ,0.356 ± 0.12,0.00364 ± 0.0029
gltX L28D (protein) MKIKTRFAPSPTGYLHVGGARTALYSWDFARNHGGEFVLRIEDTDLERSTPEAIEAIMDGMNWLSLEWDEGPYYQTKRFDRYNAVIDQMLEEGTAYKCYCSKERLEALREEQMAKGEKPRYDGRCRHSHEHHADDEPCVVRFANPQEGSVVFDDQIRGPIEFSNQELDDLIIRRTDGSPTYNFCVVVDDWDMEITHVIRGEDHINNTPRQINILKALKAPVPVYAHVSMINGDDGKKLSKRHGAVSVMQYRDDGYLPEALLNYLVRLGWSHGDQEIFTREEMIKYFTLNAVSKSASAFNTDKLLWLNHHYINALPPEYVATHLQWHIEQENIDTRNGPQLADLVKLLGERCKTLKEMAQSCRYFYEDFAEFDADAAKKHLRPVARQPLEVVRDKLAAITDWTAENVHHAIQATADELEVGMGKVGMPLRVAVTGAGQSPALDVTVHAIGKTRSIERINKALDFIAERENQQ,0.898 ± 0.1,0.00771 ± 0.001
gltX F183A (protein) MKIKTRFAPSPTGYLHVGGARTALYSWLFARNHGGEFVLRIEDTDLERSTPEAIEAIMDGMNWLSLEWDEGPYYQTKRFDRYNAVIDQMLEEGTAYKCYCSKERLEALREEQMAKGEKPRYDGRCRHSHEHHADDEPCVVRFANPQEGSVVFDDQIRGPIEFSNQELDDLIIRRTDGSPTYNACVVVDDWDMEITHVIRGEDHINNTPRQINILKALKAPVPVYAHVSMINGDDGKKLSKRHGAVSVMQYRDDGYLPEALLNYLVRLGWSHGDQEIFTREEMIKYFTLNAVSKSASAFNTDKLLWLNHHYINALPPEYVATHLQWHIEQENIDTRNGPQLADLVKLLGERCKTLKEMAQSCRYFYEDFAEFDADAAKKHLRPVARQPLEVVRDKLAAITDWTAENVHHAIQATADELEVGMGKVGMPLRVAVTGAGQSPALDVTVHAIGKTRSIERINKALDFIAERENQQ,0.414 ± 0.16,0.192 ± 0.27
gltX F183Q (protein) MKIKTRFAPSPTGYLHVGGARTALYSWLFARNHGGEFVLRIEDTDLERSTPEAIEAIMDGMNWLSLEWDEGPYYQTKRFDRYNAVIDQMLEEGTAYKCYCSKERLEALREEQMAKGEKPRYDGRCRHSHEHHADDEPCVVRFANPQEGSVVFDDQIRGPIEFSNQELDDLIIRRTDGSPTYNQCVVVDDWDMEITHVIRGEDHINNTPRQINILKALKAPVPVYAHVSMINGDDGKKLSKRHGAVSVMQYRDDGYLPEALLNYLVRLGWSHGDQEIFTREEMIKYFTLNAVSKSASAFNTDKLLWLNHHYINALPPEYVATHLQWHIEQENIDTRNGPQLADLVKLLGERCKTLKEMAQSCRYFYEDFAEFDADAAKKHLRPVARQPLEVVRDKLAAITDWTAENVHHAIQATADELEVGMGKVGMPLRVAVTGAGQSPALDVTVHAIGKTRSIERINKALDFIAERENQQ,0.239 ± 0.046,0.0145 ± 0.004
gltX I57W (protein) MKIKTRFAPSPTGYLHVGGARTALYSWLFARNHGGEFVLRIEDTDLERSTPEAIEAWMDGMNWLSLEWDEGPYYQTKRFDRYNAVIDQMLEEGTAYKCYCSKERLEALREEQMAKGEKPRYDGRCRHSHEHHADDEPCVVRFANPQEGSVVFDDQIRGPIEFSNQELDDLIIRRTDGSPTYNFCVVVDDWDMEITHVIRGEDHINNTPRQINILKALKAPVPVYAHVSMINGDDGKKLSKRHGAVSVMQYRDDGYLPEALLNYLVRLGWSHGDQEIFTREEMIKYFTLNAVSKSASAFNTDKLLWLNHHYINALPPEYVATHLQWHIEQENIDTRNGPQLADLVKLLGERCKTLKEMAQSCRYFYEDFAEFDADAAKKHLRPVARQPLEVVRDKLAAITDWTAENVHHAIQATADELEVGMGKVGMPLRVAVTGAGQSPALDVTVHAIGKTRSIERINKALDFIAERENQQ,0.481 ± 0.18,< 0.0107
gltX I57P (protein) MKIKTRFAPSPTGYLHVGGARTALYSWLFARNHGGEFVLRIEDTDLERSTPEAIEAPMDGMNWLSLEWDEGPYYQTKRFDRYNAVIDQMLEEGTAYKCYCSKERLEALREEQMAKGEKPRYDGRCRHSHEHHADDEPCVVRFANPQEGSVVFDDQIRGPIEFSNQELDDLIIRRTDGSPTYNFCVVVDDWDMEITHVIRGEDHINNTPRQINILKALKAPVPVYAHVSMINGDDGKKLSKRHGAVSVMQYRDDGYLPEALLNYLVRLGWSHGDQEIFTREEMIKYFTLNAVSKSASAFNTDKLLWLNHHYINALPPEYVATHLQWHIEQENIDTRNGPQLADLVKLLGERCKTLKEMAQSCRYFYEDFAEFDADAAKKHLRPVARQPLEVVRDKLAAITDWTAENVHHAIQATADELEVGMGKVGMPLRVAVTGAGQSPALDVTVHAIGKTRSIERINKALDFIAERENQQ,0.232 ± 0.0068,0.176 ± 0.22
gltX L306A (protein) MKIKTRFAPSPTGYLHVGGARTALYSWLFARNHGGEFVLRIEDTDLERSTPEAIEAIMDGMNWLSLEWDEGPYYQTKRFDRYNAVIDQMLEEGTAYKCYCSKERLEALREEQMAKGEKPRYDGRCRHSHEHHADDEPCVVRFANPQEGSVVFDDQIRGPIEFSNQELDDLIIRRTDGSPTYNFCVVVDDWDMEITHVIRGEDHINNTPRQINILKALKAPVPVYAHVSMINGDDGKKLSKRHGAVSVMQYRDDGYLPEALLNYLVRLGWSHGDQEIFTREEMIKYFTLNAVSKSASAFNTDKLLWANHHYINALPPEYVATHLQWHIEQENIDTRNGPQLADLVKLLGERCKTLKEMAQSCRYFYEDFAEFDADAAKKHLRPVARQPLEVVRDKLAAITDWTAENVHHAIQATADELEVGMGKVGMPLRVAVTGAGQSPALDVTVHAIGKTRSIERINKALDFIAERENQQ,0.239 ± 0.14,0.00569 ± 0.0042
gltX L306W (protein) MKIKTRFAPSPTGYLHVGGARTALYSWLFARNHGGEFVLRIEDTDLERSTPEAIEAIMDGMNWLSLEWDEGPYYQTKRFDRYNAVIDQMLEEGTAYKCYCSKERLEALREEQMAKGEKPRYDGRCRHSHEHHADDEPCVVRFANPQEGSVVFDDQIRGPIEFSNQELDDLIIRRTDGSPTYNFCVVVDDWDMEITHVIRGEDHINNTPRQINILKALKAPVPVYAHVSMINGDDGKKLSKRHGAVSVMQYRDDGYLPEALLNYLVRLGWSHGDQEIFTREEMIKYFTLNAVSKSASAFNTDKLLWWNHHYINALPPEYVATHLQWHIEQENIDTRNGPQLADLVKLLGERCKTLKEMAQSCRYFYEDFAEFDADAAKKHLRPVARQPLEVVRDKLAAITDWTAENVHHAIQATADELEVGMGKVGMPLRVAVTGAGQSPALDVTVHAIGKTRSIERINKALDFIAERENQQ,0.204 ± 0.0068,0.00624 ± 0.0024
gltX L306Q (protein) MKIKTRFAPSPTGYLHVGGARTALYSWLFARNHGGEFVLRIEDTDLERSTPEAIEAIMDGMNWLSLEWDEGPYYQTKRFDRYNAVIDQMLEEGTAYKCYCSKERLEALREEQMAKGEKPRYDGRCRHSHEHHADDEPCVVRFANPQEGSVVFDDQIRGPIEFSNQELDDLIIRRTDGSPTYNFCVVVDDWDMEITHVIRGEDHINNTPRQINILKALKAPVPVYAHVSMINGDDGKKLSKRHGAVSVMQYRDDGYLPEALLNYLVRLGWSHGDQEIFTREEMIKYFTLNAVSKSASAFNTDKLLWQNHHYINALPPEYVATHLQWHIEQENIDTRNGPQLADLVKLLGERCKTLKEMAQSCRYFYEDFAEFDADAAKKHLRPVARQPLEVVRDKLAAITDWTAENVHHAIQATADELEVGMGKVGMPLRVAVTGAGQSPALDVTVHAIGKTRSIERINKALDFIAERENQQ,0.184 ± 0.038,< 0.00695
gltX M357A (protein) MKIKTRFAPSPTGYLHVGGARTALYSWLFARNHGGEFVLRIEDTDLERSTPEAIEAIMDGMNWLSLEWDEGPYYQTKRFDRYNAVIDQMLEEGTAYKCYCSKERLEALREEQMAKGEKPRYDGRCRHSHEHHADDEPCVVRFANPQEGSVVFDDQIRGPIEFSNQELDDLIIRRTDGSPTYNFCVVVDDWDMEITHVIRGEDHINNTPRQINILKALKAPVPVYAHVSMINGDDGKKLSKRHGAVSVMQYRDDGYLPEALLNYLVRLGWSHGDQEIFTREEMIKYFTLNAVSKSASAFNTDKLLWLNHHYINALPPEYVATHLQWHIEQENIDTRNGPQLADLVKLLGERCKTLKEAAQSCRYFYEDFAEFDADAAKKHLRPVARQPLEVVRDKLAAITDWTAENVHHAIQATADELEVGMGKVGMPLRVAVTGAGQSPALDVTVHAIGKTRSIERINKALDFIAERENQQ,0.205 ± 0.087,< 0.00861
gltX M357D (protein) MKIKTRFAPSPTGYLHVGGARTALYSWLFARNHGGEFVLRIEDTDLERSTPEAIEAIMDGMNWLSLEWDEGPYYQTKRFDRYNAVIDQMLEEGTAYKCYCSKERLEALREEQMAKGEKPRYDGRCRHSHEHHADDEPCVVRFANPQEGSVVFDDQIRGPIEFSNQELDDLIIRRTDGSPTYNFCVVVDDWDMEITHVIRGEDHINNTPRQINILKALKAPVPVYAHVSMINGDDGKKLSKRHGAVSVMQYRDDGYLPEALLNYLVRLGWSHGDQEIFTREEMIKYFTLNAVSKSASAFNTDKLLWLNHHYINALPPEYVATHLQWHIEQENIDTRNGPQLADLVKLLGERCKTLKEDAQSCRYFYEDFAEFDADAAKKHLRPVARQPLEVVRDKLAAITDWTAENVHHAIQATADELEVGMGKVGMPLRVAVTGAGQSPALDVTVHAIGKTRSIERINKALDFIAERENQQ,0.233 ± 0.025,< 0.00481
